Results from the supplement of paper PMC4996465.
Viability of KB3-1 and Nalm-6 cells after 48 h of drug alone (CellTiter-Glo), 11 doses over about 4.5 log units. % of DMSO wells, lower = more cell loss; AC50 from the fitted curve, lower = more potent. No active / inactive call. Nalm-6 was screened in two runs. AC50 is listed only for well-fitted inhibitory curves. KB3-1 is a HeLa-derived carcinoma line, Nalm-6 a B-cell precursor leukaemia line.

Experiments:
Nalm-6 [1] = test: viability (% of DMSO control); higher = more viable cells
Description: (§1)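 Eleven-dose screen of the NCATS MIPE 3 library on cells without co-treatment; CellTiter-Glo after 48 h, as % of DMSO wells.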

KB3-1 = test: as above
Description: as §1

Nalm-6 [2] = test: log AC50 of viability decrease (48 h) (log10 M); higher = less potent
Description: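 Eleven-dose screen of the NCATS MIPE 3 library on cells without co-treatment; CellTiter-Glo after 48 h. AC50 from the curve fit; only inhibitory curves of the better fit classes are listed.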

SMILES | viability (Nalm-6 [1]; run: 1, 0.00078 µM) | viability (Nalm-6 [1]; run: 1, 0.00234 µM) | viability (Nalm-6 [1]; run: 1, 0.00702 µM) | viability (Nalm-6 [1]; run: 1, 0.0211 µM) | viability (Nalm-6 [1]; run: 1, 0.0632 µM) | viability (Nalm-6 [1]; run: 1, 0.19 µM) | viability (Nalm-6 [1]; run: 1, 0.569 µM) | viability (Nalm-6 [1]; run: 1, 1.71 µM) | viability (Nalm-6 [1]; run: 1, 5.12 µM) | viability (Nalm-6 [1]; run: 1, 15.4 µM) | viability (Nalm-6 [1]; run: 1, 46.1 µM) | viability (Nalm-6 [1]; run: 2, 0.00078 µM) | viability (Nalm-6 [1]; run: 2, 0.00234 µM) | viability (Nalm-6 [1]; run: 2, 0.00702 µM) | viability (Nalm-6 [1]; run: 2, 0.0211 µM) | viability (Nalm-6 [1]; run: 2, 0.0632 µM) | viability (Nalm-6 [1]; run: 2, 0.19 µM) | viability (Nalm-6 [1]; run: 2, 0.569 µM) | viability (Nalm-6 [1]; run: 2, 1.71 µM) | viability (Nalm-6 [1]; run: 2, 5.12 µM) | viability (Nalm-6 [1]; run: 2, 15.4 µM) | viability (Nalm-6 [1]; run: 2, 46.1 µM) | viability (KB3-1; 0.00078 µM) | viability (KB3-1; 0.00234 µM) | viability (KB3-1; 0.00702 µM) | viability (KB3-1; 0.0211 µM) | viability (KB3-1; 0.0632 µM) | viability (KB3-1; 0.19 µM) | viability (KB3-1; 0.569 µM) | viability (KB3-1; 1.71 µM) | viability (KB3-1; 5.12 µM) | viability (KB3-1; 15.4 µM) | viability (KB3-1; 46.1 µM) | log AC50 of viability decrease (Nalm-6 [2]; run: 1) | log AC50 of viability decrease (Nalm-6 [2]; run: 2)
CCOC(CN1C(=O)[C@](CC(=O)Nc2ccc(C)cc2)(NC(=O)Nc2ccc(C)cc2)c2ccccc21)OCC [AG-041R] | 117% | 110% | 112% | 122% | 124% | 120% | 109% | 118% | 117% | 99.5% | 2.12% | 107% | 107% | 107% | 110% | 106% | 104% | 108% | 111% | 100% | 90.6% | 2.13% | 105% | 101% | 102% | 104% | 105% | 108% | 107% | 109% | 110% | 102% | 10.3% | -4.63 | -4.63
CC(C)(C)c1cc(NC(=O)Nc2ccc(-c3cn4c(n3)sc3cc(OCCN5CCOCC5)ccc34)cc2)no1 [Quizartinib] | 89.7% | 91.6% | 101% | 109% | 103% | 102% | 71.1% | 32.1% | 26.9% | 26.4% | 7.54% | 109% | 110% | 107% | 111% | 107% | 104% | 62.2% | 22.3% | 14.5% | 13.2% | 5.62% | 96.4% | 110% | 103% | 99.1% | 99.5% | 90.2% | 95% | 100% | 91.9% | 91.6% | 61.5% | -6.08 | -6.23
C[C@]\12CCC(=O)\C=C1CC[C@H]3[C@@H]4CC[C@](O)(C(=O)CO)[C@@]4(C)C[C@H](O)[C@H]23 [Hydrocortisone] | 108% | 119% | 105% | 100% | 94.7% | 84.8% | 70.4% | 72.9% | 63.6% | 63% | 50.5% | 101% | 106% | 105% | 96.8% | 91.3% | 84.4% | 76.6% | 67.7% | 65% | 70% | 52.7% | 97.1% | 104% | 100% | 103% | 96.4% | 103% | 96.4% | 98.9% | 96% | 96.5% | 86.6% | -6.68 | -6.53
CC1=CC=C2\N=C/3N(CCC3(O)C(=O)C2=C1)C4=CC=CC=C4 (stereo not drawn) [Blebbistatin] | 93.8% | 101% | 97.5% | 108% | 109% | 107% | 103% | 106% | 95.1% | 70.9% | 62.9% | 102% | 101% | 101% | 95.9% | 94.2% | 104% | 99.4% | 104% | 91% | 91.1% | 83.1% | 101% | 101% | 100% | 98.1% | 96.7% | 99.2% | 103% | 102% | 98.7% | 96.9% | 87% | -5.03 | –
C[C@H]1CN(C[C@@H](C)O1)CC(=O)NC2=CC=C3SC4=C(CC3=C2)C=CC=C4\C5=C\C(=O)\C=C(/O5)N6CCOCC6 | 101% | 102% | 97.1% | 110% | 102% | 104% | 111% | 94.7% | 83.8% | 75.3% | 10.6% | 105% | 101% | 107% | 109% | 111% | 111% | 114% | 111% | 96.6% | 54.7% | 3.03% | 96.5% | 96.4% | 97.7% | 98.5% | 97% | 98.1% | 99.7% | 95.9% | 93.3% | 91.7% | 41.7% | -4.68 | -4.78
CN(C)C(=O)c1ccc(S(=O)(=O)c2ccc(NC(=O)[C@@](C)(O)C(F)(F)F)c(Cl)c2)cc1 [AZD-7545] | 67.6% | 98.7% | 103% | 113% | 100% | 103% | 105% | 87.5% | 76.5% | 76% | 78.1% | 94.8% | 101% | 106% | 102% | 108% | 108% | 98.8% | 90% | 77.5% | 72.7% | 78.9% | 98.6% | 104% | 99.9% | 103% | 104% | 107% | 97% | 90% | 81.4% | 94.8% | 77.6% | – | -5.78
CN(C)Cc1ccc(-c2nc3cccc4c3n2CCNC4=O)cc1 | 107% | 114% | 111% | 112% | 112% | 116% | 121% | 121% | 113% | 99.2% | 7.74% | 110% | 101% | 106% | 104% | 109% | 112% | 111% | 108% | 102% | 91.7% | 4.61% | 108% | 105% | 110% | 109% | 112% | 112% | 109% | 110% | 109% | 106% | 28.4% | -4.63 | -4.63
NC(CO)(CO)CCc1ccc(Sc2cccc(OCc3ccccc3)c2)cc1Cl [KRP 203] | 111% | 112% | 115% | 114% | 112% | 114% | 116% | 110% | 99.4% | 105% | 0.501% | 105% | 101% | 97.7% | 98.9% | 102% | 97.1% | 99.9% | 95% | 92.2% | 78.5% | 1.04% | 108% | 106% | 109% | 111% | 108% | 106% | 109% | 108% | 106% | 106% | 2.74% | – | -4.63
Cc1n[nH]c(C)c1Cc1sc2c(c1C(=O)N1C[C@H](O)CO1)c(=O)n(C)c(=O)n2CC(C)C | 73.3% | 71.3% | 59.3% | 62.4% | 66.9% | 55.7% | 59.3% | 59.9% | 59.3% | 60.1% | 58% | 82.7% | 57% | 53.7% | 41.1% | 42.6% | 42.6% | 43.3% | 41.4% | 44.8% | 40.7% | 40% | 105% | 93.2% | 104% | 110% | 103% | 104% | 107% | 106% | 110% | 110% | 106% | – | -8.73
Nc1nc2ccc(OC(F)(F)F)cc2s1 [Riluzole] | 96.6% | 98% | 111% | 103% | 104% | 113% | 110% | 101% | 99% | 106% | 10.3% | 93% | 105% | 105% | 105% | 102% | 100% | 102% | 98.4% | 102% | 88.5% | 7.64% | 103% | 100% | 106% | 102% | 104% | 101% | 100% | 98.6% | 102% | 92.3% | 56.1% | – | -4.63
Cc1cccc(-c2nn(C(=S)Nc3ccccc3)cc2-c2ccnc3ccccc23)n1 [A 83-01] | 96% | 106% | 106% | 107% | 109% | 100% | 109% | 104% | 90.2% | 80.5% | 49.5% | 98.6% | 100% | 98.2% | 103% | 102% | 103% | 94.7% | 92.8% | 87% | 81.4% | 48.9% | 104% | 109% | 106% | 110% | 109% | 110% | 110% | 108% | 108% | 107% | 82.4% | -4.78 | -4.73
CCCc1nc2c(C)cc(-c3nc4ccccc4n3C)cc2n1Cc1ccc(-c2ccccc2C(=O)O)cc1 [Telmisartan] | 100% | 108% | 108% | 109% | 109% | 111% | 114% | 108% | 106% | 93.5% | 46.5% | 106% | 109% | 102% | 105% | 106% | 106% | 109% | 106% | 104% | 87.9% | 44.1% | 100% | 99.3% | 104% | 102% | 106% | 102% | 104% | 104% | 107% | 100% | 102% | -4.68 | -4.58
CC(C)(C)COc1ccc(-n2cc(C(=O)O)cn2)cc1C#N [Piraxostat] | 124% | 124% | 123% | 124% | 130% | 121% | 119% | 122% | 120% | 110% | 100% | 112% | 102% | 111% | 109% | 107% | 108% | 101% | 104% | 91.9% | 62% | 6.52% | 109% | 109% | 107% | 106% | 110% | 112% | 109% | 109% | 108% | 105% | 101% | – | -4.73
CC1(C)SCCN(S(=O)(=O)c2ccc(OCC#CCO)cc2)[C@H]1C(=O)NO [Apratastat] | 110% | 112% | 105% | 107% | 96.6% | 84.9% | 80.1% | 70.2% | 63.8% | 69.9% | 55.3% | 108% | 103% | 99.6% | 103% | 105% | 103% | 107% | 105% | 110% | 103% | 93.6% | 98.4% | 101% | 96.1% | 102% | 97.7% | 94.1% | 99.9% | 93.6% | 92.9% | 95.5% | 83.1% | -6.63 | –
COc1nc(-c2ccc3c(c2)OCO3)n(-c2ccc(NC(=O)CSc3ccccc3)cc2)n1 [Secin H3] | 119% | 114% | 108% | 119% | 121% | 109% | 108% | 108% | 103% | 98.2% | 67.3% | 108% | 99.3% | 107% | 89.2% | 102% | 103% | 98.5% | 101% | 98.7% | 79.8% | 20.3% | 106% | 103% | 106% | 99.2% | 101% | 105% | 102% | 105% | 93.6% | 99.1% | 84.8% | -4.63 | -4.68
